SMILES strings stand for the structures. Hit rate of the full screen: of about 310,000 compounds, about 2,200 (0.71%) showed an effect of 50% or more. Effects have a minus sign here. This is one part of the list.

human ether-à-go-go-related gene (hERG) potassium channel, sequence (Q12809 whole entry, looked up): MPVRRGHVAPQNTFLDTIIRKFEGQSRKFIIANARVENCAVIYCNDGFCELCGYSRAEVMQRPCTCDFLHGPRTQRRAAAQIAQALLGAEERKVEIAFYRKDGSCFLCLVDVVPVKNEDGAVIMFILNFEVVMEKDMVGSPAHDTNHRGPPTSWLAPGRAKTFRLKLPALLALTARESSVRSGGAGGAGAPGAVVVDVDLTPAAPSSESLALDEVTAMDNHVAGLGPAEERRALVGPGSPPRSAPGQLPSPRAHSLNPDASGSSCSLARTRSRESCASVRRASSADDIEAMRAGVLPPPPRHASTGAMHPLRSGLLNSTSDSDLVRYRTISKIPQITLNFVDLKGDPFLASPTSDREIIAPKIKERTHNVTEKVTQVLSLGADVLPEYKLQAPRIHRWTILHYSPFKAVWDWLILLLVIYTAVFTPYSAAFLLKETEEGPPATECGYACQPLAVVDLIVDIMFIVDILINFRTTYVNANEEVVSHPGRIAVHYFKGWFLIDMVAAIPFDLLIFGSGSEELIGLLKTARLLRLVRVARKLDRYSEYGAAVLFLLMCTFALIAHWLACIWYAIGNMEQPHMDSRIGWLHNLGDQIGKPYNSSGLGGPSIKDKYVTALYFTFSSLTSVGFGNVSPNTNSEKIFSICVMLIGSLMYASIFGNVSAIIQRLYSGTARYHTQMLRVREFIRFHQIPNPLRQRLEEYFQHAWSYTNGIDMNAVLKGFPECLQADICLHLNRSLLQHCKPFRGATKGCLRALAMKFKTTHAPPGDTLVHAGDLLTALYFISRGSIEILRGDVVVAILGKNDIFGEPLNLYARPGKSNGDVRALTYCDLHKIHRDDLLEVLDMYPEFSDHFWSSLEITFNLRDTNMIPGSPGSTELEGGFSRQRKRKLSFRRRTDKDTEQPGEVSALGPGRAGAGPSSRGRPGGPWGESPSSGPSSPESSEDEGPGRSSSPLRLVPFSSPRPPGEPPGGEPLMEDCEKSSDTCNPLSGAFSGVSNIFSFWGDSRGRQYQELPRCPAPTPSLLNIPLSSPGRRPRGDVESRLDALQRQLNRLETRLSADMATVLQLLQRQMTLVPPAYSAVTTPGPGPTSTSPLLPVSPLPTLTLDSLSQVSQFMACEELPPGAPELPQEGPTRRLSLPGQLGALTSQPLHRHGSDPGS

The experiment concerns the target human ether-à-go-go-related gene (hERG) potassium channel (human, UniProt Q12809). The experiment in a line: primary screen, population patch clamp on CHO cells stably expressing hERG.
Regarding `O=C(Cc1c(F)cccc1Cl)NCc1cccnc1`, the “hERG current change (%, negative = inhibition) at 1uM” value was 14.9%. For the compound `CCN1CCN(C(=O)c2c(-c3ccccc3)noc2C)CC1`, the “hERG current change (%, negative = inhibition) at 1uM” value amounted to 9.87%. The same measure for `CCCN(CC(=O)Nc1ccccc1C)C(=O)c1ccc2ccccc2n1`: 8.04%. The same measure for `COCCNC(=O)C1CC2Cn3c(nc4cc(C)c(C)cc43)C2N1C` (stereo not drawn): 1.97%. Next, `CC1(C)NC(=O)N(CCOCCSc2ccccc2)C1=O`: 5.85%; `O=S(=O)(NCc1ccc2c(c1)OCO2)c1ccc(F)c(F)c1`: 2.68%; `CC(=O)c1ccc(S(=O)(=O)N2CCc3ccccc3C2)cc1`: 12.6%. Turning to `Cn1c(=O)c(=O)n(C)c2cc(S(=O)(=O)NCCOc3ccccc3Cl)ccc21`, the “hERG current change (%, negative = inhibition) at 1uM” value is given as 10.1%. Next, `CCOC(=O)N1CCN(C(=O)CSCC(=O)Nc2nc(-c3ccc(Cl)s3)cs2)CC1`: -6.91%; `Cc1ccc(S(=O)(=O)N(CC(=O)N2CCC(C)CC2)c2cccc(C)c2)cc1`: -1.89%. For the compound `CCOC(=O)CN1N=C(c2ccc(Cl)s2)CSC1=O`, the “hERG current change (%, negative = inhibition) at 1uM” value is on record as 18.8%.

Consider `Cc1ccc(CNC(=O)NCc2ccccc2)cc1`, for which the “hERG current change (%, negative = inhibition) at 1uM” value was found to be 13.4%. As for `C=CCOc1cccc(CNc2ccc3[nH]c(=O)[nH]c3c2)c1`, the “hERG current change (%, negative = inhibition) at 1uM” value amounted to 8.06%. Next, `Cc1ccc2nc(C)c(C(=O)N/N=C/c3ccc(N4CCOCC4)cc3)cc2c1`: 0.121%; `CCOC(=O)CCCNC(=O)COC(=O)c1cc2ccccc2cc1O`: 7.61%; `COc1ccc(-c2noc(CN(C)S(=O)(=O)c3ccc(Cl)cc3)n2)cc1OC`: -11.5%. In the case of `CC1CC(C)(C)NCc2ccccc21.Cl` (stereo not drawn), the “hERG current change (%, negative = inhibition) at 1uM” value turned out to be 15.1%.

As for `Cn1c2ccccc2c(=O)c2cc(C#Cc3ccccn3)ccc21`, the “hERG current change (%, negative = inhibition) at 1uM” value was 13.5%. The same measure for `Cc1ccc(C(=O)C2=C(O)C(=O)N(Cc3cccnc3)C2c2cccc([N+](=O)[O-])c2)o1` (stereo not drawn): -5.85%; for `CC(=O)c1ccc(Nc2nc(C)cc(C)n2)cc1`: 8.03%; for `COc1ccc(C2CCN(Cc3cccnc3)CC2O)cc1` (stereo not drawn): -1.46%. In the case of `COc1cccc(CN2CCN(C(=O)Nc3ccc([N+](=O)[O-])cc3)CC2)c1`, the “hERG current change (%, negative = inhibition) at 1uM” value is reported as -19.8%. Next, `COc1ccccc1NC(=O)c1ccc(NC(=O)CNC(=O)c2ccc(OC)c(OC)c2)cc1`: 7.95%; `COc1cc2c(cc1OC)C(C1c3cc4c(cc3CCN1C)OCO4)OC2=O` (stereo not drawn): 15.2%. For the compound `COc1ccc(-c2nc(CS(=O)(=O)CC(=O)NCCCc3ccccc3)c(C)o2)cc1`, the “hERG current change (%, negative = inhibition) at 1uM” value amounted to 4.47%. Next, `O=C(CNS(=O)(=O)c1ccc2ccccc2c1)Nc1ccc(F)c(F)c1F`: 1.87%; `O=C(O)CN1C(=O)/C(=C\c2cn(-c3ccccc3)nc2-c2ccccc2)SC1=S`: 4.47%; `C=C(C)C(=O)N1CC2(CC(c3cccc(NC(=O)CCCCC)c3)=NO2)C[C@H]1C(N)=O` (stereo partly drawn): 7.28%. Consider `O=C(O)CSc1nnc(CNc2ccc(Cl)cc2)n1Cc1ccccc1`, for which the “hERG current change (%, negative = inhibition) at 1uM” value is on record as -16.2%. Turning to `CCO[C@H]1OC(C(=O)N2CCN(Cc3ccc4c(c3)OCO4)CC2)=C[C@@H](C2CCCCC2)[C@@H]1CCCO`, the “hERG current change (%, negative = inhibition) at 1uM” value was -9.87%.

With `CCOCCCNC(=S)N1CCC(NC(=O)C2CCCCC2)CC1`, the “hERG current change (%, negative = inhibition) at 1uM” value came to 12%.

Turning to `O=C(c1ccncc1)N1CCN(C(=O)c2cccs2)CC1`, the “hERG current change (%, negative = inhibition) at 1uM” value is reported as 10.9%. `COc1cc(/C=N/N2C(=O)c3ccccc3C2=O)ccc1O`: the “hERG current change (%, negative = inhibition) at 1uM” value is listed as 5.98%. Take `Cc1ccc2c(nc3s/c(=C\c4ccc(-c5ccccc5C(=O)O)o4)c(=O)n32)c1C`: the “hERG current change (%, negative = inhibition) at 1uM” value is given as 11.6%. `COc1ccc(CCNC(=O)[C@@H](NC(=O)c2ccccc2F)C(C)C)cc1OC`: the “hERG current change (%, negative = inhibition) at 1uM” value is 3.87%. The same measure for `Cc1c(CC(=O)NCCCCCC(=O)O)c(=O)oc2cc3occ(-c4ccccc4)c3cc12`: 13.1%; for `CCCCOCCCN1CC(=O)N2[C@@H](Cc3c([nH]c4ccccc34)C2(C)C)C1=O`: 11.6%. Turning to `CN(Cc1cnccn1)C(=O)CC1C(=O)NCCN1Cc1cccc(F)c1` (stereo not drawn), the “hERG current change (%, negative = inhibition) at 1uM” value was 5.09%.

As to `COc1ccccc1CN1CCC(CNS(=O)(=O)c2cc(-c3cc(C)no3)ccc2C)CC1`, the “hERG current change (%, negative = inhibition) at 1uM” value is on record as -22%.

For `Cc1nc2ccc(NC(=O)C3CCCCC3)cc2s1`, the “hERG current change (%, negative = inhibition) at 1uM” value is reported as -4.11%. Consider `Clc1ccccc1CO/N=C1\CCCc2nonc21`, for which the “hERG current change (%, negative = inhibition) at 1uM” value is recorded as -0.605%. As for `Cc1ccccc1N1C(=O)c2cc(S(N)(=O)=O)c(Cl)cc2NC1C` (stereo not drawn), the “hERG current change (%, negative = inhibition) at 1uM” value is 16%.

Consider `O=P1(NCc2ccco2)COc2ccccc2OC1`, for which the “hERG current change (%, negative = inhibition) at 1uM” value came out at 13.4%. For `CC12CCC3C(CC=C4CC(O)CCC43C)C1C/C(=C\c1ccccc1F)C2=O` (stereo not drawn), the “hERG current change (%, negative = inhibition) at 1uM” value is -1.81%. The same measure for `CC(=O)Nc1ccc(Oc2cnccn2)cc1`: 2.59%. The same measure for `CCNS(=O)(=O)c1ccc(-c2ccc(-n3cnnn3)cc2)cc1`: 4.69%. The same measure for `Cn1cc([C@@H]2C[C@H]3CN(C4CCCC4)C(=O)[C@]34CCCN24)c(-c2ccccc2)n1`: -0.828%. As for `CCCCOc1ccc(/C=C/C2=CC(C)(C)NC(=S)N2)cc1OCC`, the “hERG current change (%, negative = inhibition) at 1uM” value is 4.18%. Consider `CCCc1cc(=O)[nH]c(SCc2nc3ccccc3o2)n1`, for which the “hERG current change (%, negative = inhibition) at 1uM” value is recorded as 11.7%. The same measure for `COCCNC(=S)N/N=C(\C)c1ccc(OC)cc1`: 9.25%. With `O=C1C(Cl)=C(N2CCN(Cc3ccccc3)CC2)C(=O)N1c1ccccc1`, the “hERG current change (%, negative = inhibition) at 1uM” value is recorded as 8.07%.

On to `Cc1ccccc1CN1CCN(CC(=O)NCc2ccccc2)CC1`, for which the “hERG current change (%, negative = inhibition) at 1uM” value amounted to 3.18%. The same measure for `Cc1ccc(C(=O)Nc2cc(C)nn2CCC#N)cc1`: -5.59%; for `Cc1ccccc1NC(=O)CSc1nnc(C)c2ccccc12`: 6.96%; for `COc1cccc(C2CC(=O)N3CN(c4cccc(Cl)c4C)CSC3=C2C#N)c1OC` (stereo not drawn): 8.5%.

Turning to `COCc1cc(=O)[nH]c(-c2ccc(C(F)(F)F)cc2)n1`, the “hERG current change (%, negative = inhibition) at 1uM” value stood at 10.9%. Next, `Cc1ccc(C(=O)NC(=S)Nc2ccc3c(c2)OCCO3)c(C)c1`: 7.55%; `O=C1Nc2ccc(Br)cc2C(c2ccccc2Cl)=NC1O` (stereo not drawn): -22.2%. As to `CC(=O)NC(Cc1cccc(F)c1)C(=O)NC1CCN(C(=O)c2cccc(C)c2)CC1` (stereo not drawn), the “hERG current change (%, negative = inhibition) at 1uM” value is recorded as -3.38%.

As to `CCc1sc(N(C(=O)Cc2ccccc2)c2ccc(F)cc2)nc1-c1ccccc1`, the “hERG current change (%, negative = inhibition) at 1uM” value is 15.4%.

Take `CCOc1ccc(NC(=O)c2cccc(-n3cccc3)c2)cc1S(=O)(=O)N1CCOCC1`: the “hERG current change (%, negative = inhibition) at 1uM” value is recorded as 0.609%. `COCCNC(=S)Nc1ccccc1[N+](=O)[O-]`: the “hERG current change (%, negative = inhibition) at 1uM” value came out at 19.3%. Take `O=C(NCc1ccccc1)C(c1ccccc1F)N(C(=O)c1csnn1)C1CCCC1` (stereo not drawn): the “hERG current change (%, negative = inhibition) at 1uM” value stood at 9.59%. The same measure for `Cc1ccc(-c2csc(NC(=O)CSc3ncn(-c4ccccc4)n3)n2)cc1`: 8.31%; for `CCn1cc([N+](=O)[O-])c(C(=O)NCc2ccc(Cl)cc2)n1`: 2.4%; for `O=C(NCc1ccncc1)C1=NN(c2ccccc2)C(=O)CC1`: 9.76%. Turning to `COc1cc(CC(=O)N/N=C/c2ccccc2)c([N+](=O)[O-])cc1OC`, the “hERG current change (%, negative = inhibition) at 1uM” value came out at 5.94%. For the compound `Cc1cc(C(=O)Nc2ccccc2Cl)n(-c2ccccc2)n1`, the “hERG current change (%, negative = inhibition) at 1uM” value was determined as 12.8%. For `Cc1ccc(CSc2nncn2-c2ccccn2)cc1`, the “hERG current change (%, negative = inhibition) at 1uM” value is reported as 11.3%. As to `COc1ccc(CN(C)CC(=O)c2c(N)n(Cc3ccccc3)c(=O)n(C)c2=O)c(OC)c1`, the “hERG current change (%, negative = inhibition) at 1uM” value is reported as -18.2%. Next, `COc1ccccc1C(=O)NC1CCCCCCC1`: 11.8%; `O=C(c1cnccn1)N(Cc1ccco1)C1(C(=O)NC2CCCC2)CCCCC1`: 8.62%. The same measure for `Fc1cccc(Cc2noc(CN3CCC(c4ccncc4)CC3)n2)c1`: -1.98%. As for `COc1cccc(CNS(=O)(=O)c2cc(Br)cc3c2N(C(C)=O)C(C)C3)c1` (stereo not drawn), the “hERG current change (%, negative = inhibition) at 1uM” value was -6.69%.

For `Cc1ccsc1/C=N/NC(=O)CNC(=O)c1ccco1`, the “hERG current change (%, negative = inhibition) at 1uM” value is on record as 16.1%. Next, `CCCNC(=O)N1C2=NC(C(=O)OC)=C(C(=O)OC)[C@@H]3N(Cc4ccccc4)c4ccccc4[C@]23C[C@H]1CO`: 9.69%; `COc1ccc(CC2NCCC3=CC(=O)CCC32)cc1O` (stereo not drawn): 13.5%; `CCOc1ccc(-n2c(=O)[nH]cc(C(=O)N3CCCc4ccccc43)c2=O)cc1`: 13%. `COCCNC(=O)C(c1ccc(C)o1)N(Cc1cccs1)C(=O)c1snc(C(N)=O)c1N` (stereo not drawn): the “hERG current change (%, negative = inhibition) at 1uM” value was found to be 4.93%. Turning to `Cc1cc(C)c(S(=O)(=O)Nc2ccnc(-c3cccnc3)n2)c(C)c1`, the “hERG current change (%, negative = inhibition) at 1uM” value is 22.5%.

Turning to `O=C(NCC1CCCN1S(=O)(=O)c1cccs1)C(=O)Nc1ccc(F)cc1` (stereo not drawn), the “hERG current change (%, negative = inhibition) at 1uM” value was -4.58%.

For the compound `Cc1nc2ccc(C(=O)N/N=C/c3ccccc3O)cc2[nH]1`, the “hERG current change (%, negative = inhibition) at 1uM” value is listed as 6.05%. Consider `CC(=O)Oc1c(Br)cc(N(C(C)=O)S(=O)(=O)c2ccccc2)c2ccccc12`, for which the “hERG current change (%, negative = inhibition) at 1uM” value is listed as 19.9%.

For the compound `CC(=O)Nc1ccc(S(=O)(=O)Nc2ccccc2C(=O)N2CCCC2)cc1`, the “hERG current change (%, negative = inhibition) at 1uM” value turned out to be 9.04%. Next, `Cc1ccc(S(=O)(=O)N2CCCCC2)cc1NC(=O)CSc1nncn1-c1ccccc1`: 6.21%. In the case of `O=C(NNc1nc2c(F)cccc2s1)c1ccc(F)cc1`, the “hERG current change (%, negative = inhibition) at 1uM” value was -0.0058%. Next, `O=S(=O)(c1ccc(S(=O)(=O)N(Cc2ccco2)Cc2ccccc2Cl)cc1)N1CCCC1`: 7.98%.

These data come from publication PMC4336329 (PLoS ONE, 2015).
